{"source": "PubChem BioAssay AID504466", "about": "(National Center for Advancing Translational Sciences (NCATS), 2011)", "note": "Screen size: about 330,000 compounds; about 4,200 (1.3%) were called active. Inconclusive results, whose numbers are uncertain, are shown with a selection of clear calls. Calls follow the shape of the dose curve; as a rule, active = well fitted activation curve with a large enough effect; inconclusive = small, poorly fitted or top-dose-only effect; inactive = no such curve, though single readings can be large or run the other way. Where the call is inconclusive, the potency comes from a doubtful curve fit. Potency is read from the fitted curve at half-maximal effect; tags tell the direction and shape of the fitted curve.", "data": [{"test": "qHTS screen for small molecules that induce genotoxicity in human embryonic kidney (HEK293T) cells expressing luciferase-tagged ELG1; also: nearly all actives have a fitted effect of over 60% in size", "details": "HEK293T ELG1-luciferase reporter, luminescence, 16 h; series mostly up to 46 µM", "summary_of_the_method": "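ELG1-luciferase HEK293T cells, 2,000/well; compound pinned in; 16 hr, 37 °C, 5% CO2; ONE-Glo, 30 min RT; luminescence on CCD imager.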", "values": [{"smiles": "Cc1nn(C(=O)CCCC(=O)NCc2ccccc2)c2ccccc12", "Potency": "inactive"}, {"smiles": "Cc1ccc(S(=O)(=O)N2C(=O)c3cccc4cccc2c34)cc1", "Potency": "inactive"}, {"smiles": "C/C(=C\\c1ccccc1)C(=O)NCc1ccco1", "Potency": "inconclusive: 20.6 µM [activator, partial curve, poor fit]"}, {"smiles": "COc1cccc2cc(C(N)=O)/c(=N/NC(=O)COc3ccc(Cl)cc3)oc12", "Potency": "inconclusive: 20.6 µM [activator, partial curve, poor fit]"}, {"smiles": "CNC(=O)CCCCC(=O)N/N=C/c1ccc(Cl)cc1Cl", "Potency": "inactive"}, {"smiles": "CC1CCN(C(=O)Cn2nnc(-c3cccs3)n2)CC1", "Potency": "inconclusive: 9.2 µM [activator, partial curve]"}, {"smiles": "C#CCSc1nnc(-c2sc3ccccc3c2Cl)o1", "Potency": "inconclusive: 11.6 µM [activator, partial curve]"}, {"smiles": "Cn1ccnc1C(=O)c1cc(=O)c2ccccc2o1", "Potency": "inconclusive: 16.4 µM [activator, partial curve]"}, {"smiles": "Cc1ccc(-c2nc3nc4ccccc4nc3n2Cc2ccco2)cc1", "Potency": "active: 2.91 µM"}, {"smiles": "Cn1cnc2cc(NCc3cccs3)ccc21", "Potency": "inconclusive: 13 µM [activator, partial curve, poor fit]"}, {"smiles": "Nc1ccc2oc(-c3ccc4nc[nH]c4c3)nc2c1", "Potency": "inconclusive: 2.59 µM [activator, full curve, poor fit]"}, {"smiles": "Cc1cccc(C(=O)NCCc2n[nH]c(=S)n2C)c1", "Potency": "inactive"}, {"smiles": "COc1cc(SC)ccc1C(=O)Nc1ccc(C)cc1C", "Potency": "inconclusive: 5.8 µM [activator, partial curve]"}, {"smiles": "COc1ccc(C)cc1S(=O)(=O)Nc1cc2c3c(c1)CCN3C(=O)CC2", "Potency": "inconclusive: 18.3 µM [activator, partial curve, poor fit]"}, {"smiles": "CCCc1cc(C(=O)Nc2cccnc2Cl)no1", "Potency": "inconclusive: 20.6 µM [activator, partial curve]"}, {"smiles": "COc1cccc(CNC(=O)C2CCN(c3nnc(N4CCCC4=O)s3)CC2)c1", "Potency": "inactive"}, {"smiles": "N#CCCN(Cc1cccs1)C(=O)Nc1ccc(F)cc1", "Potency": "inactive"}, {"smiles": "CSC1=NSC2=NC(=O)/C(=C\\c3ccc(OC(=O)c4ccco4)cc3)C(=N)N12", "Potency": "inconclusive: 16.4 µM [activator, partial curve]"}, {"smiles": "CCn1cc(Br)c(C(=O)Nc2ccc(Cl)c(Cl)c2)n1", "Potency": "inconclusive: 18.4 µM [activator, partial curve, poor fit]"}, {"smiles": "Cc1ccc(C)c(Nc2cc(C(=O)NCc3cccnc3)c3ccccc3n2)c1", "Potency": "inactive"}, {"smiles": "COc1cc(C(=O)Nc2ccc3c(c2)nc(C)n3C)cc(OC)c1OC", "Potency": "inconclusive: 25.1 µM [activator, single point]"}, {"smiles": "COc1ccc(N=C(C)c2sc3ccccc3c2O)cc1", "Potency": "active: 2.31 µM"}, {"smiles": "N/C(=N\\OC(=O)c1ccc2c(c1)OCO2)c1ccc(Br)cc1", "Potency": "inconclusive: 9.2 µM [activator, partial curve, poor fit]"}, {"smiles": "COc1cc(/C=N/NC(=O)COc2ccc(C)cc2)ccc1OC(=O)c1cccs1", "Potency": "inactive"}, {"smiles": "CCOC(=O)c1nc(S(C)(=O)=O)ncc1Cl", "Potency": "inconclusive: 32.6 µM [activator, partial curve, poor fit]"}, {"smiles": "COc1ccc2c(=O)c3ccccc3oc2c1", "Potency": "inconclusive: 14.6 µM [activator, partial curve]"}, {"smiles": "COc1c(C(=O)Nc2ccc(Br)cn2)ccc2ccccc12", "Potency": "inconclusive: 16.4 µM [activator, partial curve]"}, {"smiles": "O=C(NCC1CCCO1)C(=O)NCC1CCCN1S(=O)(=O)c1ccccc1", "note": "(stereo not given)", "Potency": "inactive"}, {"smiles": "NC(=O)[C@H]1CC2(CC(c3cccc(NC(=O)COc4ccc(Cl)cc4)c3)=NO2)CN1C(=O)C(c1ccccc1)c1ccccc1", "note": "(stereo not given in full)", "Potency": "inactive"}, {"smiles": "CC(C)C(=O)Nc1cccc(C(=O)Nc2ccc3c(c2)OCO3)c1", "Potency": "active: 6.51 µM"}, {"smiles": "Cc1cc(Sc2ncnc(N)c2[N+](=O)[O-])ncn1", "Potency": "inconclusive: 29.1 µM [activator, single point]"}, {"smiles": "C=CCN(C(=O)CC(NC(C)=O)c1ccccc1)c1nc(-c2ccc(S(C)(=O)=O)cc2)cs1", "note": "(stereo not given)", "Potency": "inconclusive: 23.1 µM [activator, partial curve, poor fit]"}, {"smiles": "COc1ccc(COC(=O)C2CCN(C(=O)c3ccc(Cl)cc3)CC2)cc1F", "Potency": "inactive"}, {"smiles": "CC(C)c1ccc(NC(=S)N2CCN(C)CC2)cc1", "Potency": "inconclusive: 20.6 µM [activator, partial curve, poor fit]"}, {"smiles": "O=c1[nH]c(SCc2ccc([N+](=O)[O-])cc2)nc2[nH]ncc12", "Potency": "inconclusive: 18.3 µM [activator, partial curve, poor fit]"}, {"smiles": "O=C(Nc1cccc(S(=O)(=O)Nc2ccc(Cl)cc2)c1)c1cc2c(s1)CCCC2", "Potency": "inactive"}, {"smiles": "O=C(COc1ccc(Cl)cc1Cl)NC(=O)N1CCOCC1", "Potency": "inactive"}, {"smiles": "CC1(C)NC(=O)N(CCOCCOc2ccc3ccccc3c2Br)C1=O", "Potency": "inconclusive: 29.1 µM [activator, single point]"}, {"smiles": "Cc1ccccc1N=C1Nc2ccccc2CS1", "Potency": "inconclusive: 2.59 µM [activator, full curve, poor fit]"}, {"smiles": "CC1CCN(C(=O)c2ccc(S(=O)(=O)NCc3ccco3)cc2)CC1", "Potency": "inactive"}, {"smiles": "Cc1ccccc1C(=O)NC(CC(C)C)C(=O)OCc1cc(=O)n2cc(Br)ccc2n1", "note": "(stereo not given)", "Potency": "inconclusive: 13 µM [activator, partial curve]"}, {"smiles": "Nc1nnc(SCC(=O)Nc2cccc(S(=O)(=O)N3CCCCC3)c2)s1", "Potency": "inactive"}, {"smiles": "COc1ccc(CCNC(=O)C2CC(c3ccc(C(F)(F)F)cc3)=NO2)cc1", "note": "(stereo not given)", "Potency": "inactive"}, {"smiles": "O=C(Nc1ccc(Cl)cc1)Nc1ccccn1", "Potency": "inconclusive: 9.2 µM [activator, partial curve]"}, {"smiles": "CC(=O)Nc1cc(C(=O)OCC(=O)c2ccc(C)cc2)ccc1C", "Potency": "inconclusive: 14.6 µM [activator, partial curve]"}, {"smiles": "O=C(CN1C(=O)S/C(=C/c2ccc(N3CCOCC3)cc2)C1=O)N1CCOCC1", "Potency": "inconclusive: 23.1 µM [activator, partial curve, poor fit]"}, {"smiles": "COCCCNc1nc2c(-c3ccc(C)cc3)nnn2c2ccccc12", "Potency": "inconclusive: 20.6 µM [activator, partial curve, poor fit]"}, {"smiles": "Cc1ccnc(NC(=O)c2cccc(S(=O)(=O)N3CCN(c4ccc(F)cc4)CC3)c2)c1", "Potency": "inconclusive: 29.1 µM [activator, partial curve, poor fit]"}, {"smiles": "CC(C)n1cc(/C=N\\NC(=O)c2cc3c(ccc4ccccc43)o2)c2ccccc21", "Potency": "inactive"}, {"smiles": "Cc1cc(C)c(NC(=O)CNC(=O)COC(=O)Cc2ccccc2C)c(C)c1", "Potency": "inactive"}, {"smiles": "Cc1ccc(CSc2nnc(-c3ccccn3)n2N)cc1", "Potency": "inconclusive: 25.9 µM [activator, partial curve, poor fit]"}, {"smiles": "O=C(N/N=C1\\CCCc2ccccc21)c1ccc([N+](=O)[O-])cc1", "Potency": "inconclusive: 14.6 µM [activator, partial curve, poor fit]"}, {"smiles": "CCOc1ccc2[nH]c3nc(SCC(=O)OC(C)C)nnc3c2c1", "Potency": "inconclusive: 32.6 µM [activator, partial curve, poor fit]"}, {"smiles": "CCSc1ccccc1C(=O)NCCCn1ccnc1", "Potency": "inactive"}, {"smiles": "Cc1cc(-c2csc(Nc3ccccn3)n2)ccc1F", "Potency": "inconclusive: 2.31 µM [activator, full curve]"}, {"smiles": "Cc1nc(SCC(=O)Nc2nccs2)c(C#N)c(C)c1C", "Potency": "inconclusive: 0.326 µM [activator, full curve, poor fit]"}, {"smiles": "Cc1cc(NC2CCCC2)n2nc(C)c(-c3ccccc3)c2n1", "Potency": "inconclusive: 23.1 µM [activator, partial curve, poor fit]"}, {"smiles": "O=C(CCc1ccccc1)Nc1cc2c(cc1Cl)OCCO2", "Potency": "inconclusive: 23.1 µM [activator, single point]"}, {"smiles": "COc1c(N)c2ccccc2[nH]c1=O", "Potency": "inconclusive: 20 µM [activator, partial curve, poor fit]"}, {"smiles": "O=C1C(C=NCCN2CCOCC2)=C(O)c2ccccc21", "Potency": "inconclusive: 8.2 µM [activator, partial curve]"}, {"smiles": "O=C(O)c1ccc(NC(=S)NC(=O)c2ccc3ccccc3c2)cc1", "Potency": "inconclusive: 13 µM [activator, partial curve, poor fit]"}, {"smiles": "CS(=O)(=O)c1ccc(-c2sc3ccccc3c2C(=O)N2CCN(c3ccc(F)cc3)CC2)cc1", "Potency": "inconclusive: 10.3 µM [activator, partial curve, poor fit]"}, {"smiles": "COc1ccc(OC)c(Nc2cc(-c3ccccc3)nc(N)n2)c1", "Potency": "inconclusive: 3.26 µM [activator, full curve, poor fit]"}, {"smiles": "COc1ccccc1C(=O)COC(=O)c1cccs1", "Potency": "inconclusive: 29.1 µM [activator, partial curve, poor fit]"}, {"smiles": "Cn1c(N)c(C(=O)CSc2nc(C3CC3)n(-c3ccccc3)n2)c(=O)n(C)c1=O", "Potency": "inactive"}, {"smiles": "CN1CCN(CCCNC(=O)c2cc3c(=O)n(C)c4ccccc4c3s2)CC1", "Potency": "inconclusive: 4.61 µM [activator, partial curve]"}, {"smiles": "O=C(CCc1nnc(CCCc2ccccc2)o1)N1CCCCCC1", "Potency": "inconclusive: 14.6 µM [activator, partial curve]"}, {"smiles": "O=C(NCCc1ccccc1)c1cnc2sccn2c1=O", "Potency": "inconclusive: 20.6 µM [activator, partial curve]"}, {"smiles": "COc1ccc(CNC(=S)NC2CCCCC2)cc1", "Potency": "inactive"}, {"smiles": "C=CCn1c(=O)c2ccc(C(=O)NCc3ccccc3)cc2n(Cc2ccccc2Cl)c1=O", "Potency": "inconclusive: 13 µM [activator, partial curve, poor fit]"}]}]}
